The campaign covered roughly 410,000 compounds. About 7,200 (1.8%) were called active. This list was built around the results that the source calls inconclusive (neither active nor inactive); the mix of calls is not that of the screen. Calls come from the whole dose curve; as a rule, active = well fitted activation curve with a large enough effect; inconclusive = small, poorly fitted or top-dose-only effect, or another doubt; inactive = no such curve, though single readings can be large or run the other way. No potency is given beside an inconclusive call; the fits are too rough.
Experiment: qHTS of TDP-43 Inhibitors; note: nearly all actives have a fitted effect of over 50% in size; for growth rescue (activation): % of control where 0% means no effect
Details: TDP-43 expressing yeast growth rescue, BacTiter-Glo, 24 h; growth rescue (activation): at 46.1 µM (top of the series) unless noted
Outline: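 Growth rescue of TDP-43-toxic yeast measured as ATP luminescence (BacTiter-Glo). Cells grown to mid-log in raffinose, induced in galactose at OD600=0.02, exposed to compound 24 hr at 30 deg C.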
Potency is the fitted concentration of half-maximal effect; tags give direction and shape of the fitted curve.

With `Cc1ccccc1OCC(=O)N(Cc1nc(-c2ccccc2)no1)C(C)C` as the compound, how does the Potency read?
The Potency was inconclusive [activator, single point].

Which Potency does the source give for `Cc1ccc(C(C)C)c(OCC(=O)N2CCC(c3nc4ccccc4o3)CC2)c1` here?
The Potency was inconclusive [activator, single point].

For `COc1cccc(C2=CC(=O)CC(C)(C)C2)c1`, which Potency is on record?
Its Potency is inconclusive [activator, partial curve].

For `CC(C)c1ccc(S(=O)(=O)/N=C2/C=C(Sc3ncn[nH]3)C(=O)c3ccccc32)cc1`, which growth rescue (activation) is on record?
Its growth rescue (activation) is inconclusive: -41.2% [activator].

With `CC(=O)COc1cc(C)cc2oc(=O)c(C)c(C)c12` as the compound, how does the “growth rescue (activation)” value read?
The value was inactive: -13.4%.

With `Cc1nc2nc(SCC(=O)NCCc3ccccc3)nn2c(C)c1Cc1c(F)cccc1Cl` as the compound, how does the Potency read?
The Potency was active: 22.4 µM.

Which Potency does the source give for `COc1ccc(NC(=O)CC2(Cc3ccccc3)CCOC(C)(C)C2)cc1` (stereo unspecified) here?
The Potency was inconclusive [activator, partial curve].

With `Cc1nc(C)c(C(=O)Nc2cccc(C)c2C)s1` as the compound, how does the “growth rescue (activation)” value read?
The value was inactive: 10.7%.

For `Cc1ccccc1-c1ccc(CN2C(C(C)C)C(=O)N(Cc3cn(CCC4OCCO4)nn3)CCS2(=O)=O)cc1` (stereo unspecified), which Potency is on record?
Its Potency is inconclusive [activator, single point].

Which Potency does the source give for `Cc1cc2nnc(SC(C)C)n2c2ccccc12` here?
Its Potency is inconclusive [activator, single point].

With `CCOc1cc(N2CCOCC2)c(OCC)cc1NC(=O)COC(=O)CCOc1ccc(C)cc1` as the compound, how does the Potency read?
Its Potency is inconclusive [activator, single point].

With `COc1ccc(N2CCN(c3nc4ccccn4c(=O)c3C=O)CC2)cc1` as the compound, how does the Potency read?
The Potency was inconclusive [activator, single point].

With `COC(=O)c1cccc(Nc2ncnc3sccc23)c1` as the compound, how does the Potency read?
Its Potency is inconclusive [activator, single point].

With `CCN(CC)C(=O)CSc1nc(-c2cccs2)cc(-c2cccs2)c1C#N` as the compound, how does the Potency read?
The Potency was inconclusive [activator, single point].

For `CCCCCCCCCC(=O)Nn1cnc2ccccc2c1=O`, which Potency is on record?
The Potency was inconclusive [activator, partial curve, poor fit].

Which “growth rescue (activation)” value does the source give for `Cc1nn2c(=O)cc(COC(=O)c3cccc(NC(=O)c4cccs4)c3)nc2s1` here?
The value was inactive: 0%.

Which “growth rescue (activation)” value does the source give for `O=C(c1cc2cc(F)ccc2[nH]1)N1CCc2ccccc21` here?
The value was inactive: 10.5%.

With `Cc1cccc(C(=O)OCC(=O)N2CCCC2=O)c1O` as the compound, how does the Potency read?
Its Potency is inconclusive [activator, partial curve, poor fit].

For `Cc1ccc(NC(=O)C(NS(=O)(=O)c2ccc3c(c2)CCC(=O)N3)c2ccccc2)cc1C` (stereo unspecified), which “growth rescue (activation)” value is on record?
The value was inactive: -6.94%.

For `COC(=O)C1=C(C)N(Cc2ccccc2)C(=S)N[C@H]1c1cccc(F)c1`, which Potency is on record?
Its Potency is active: 11.2 µM.

For `CCOC(=O)C(NC(=O)Nc1ccc(F)cc1)(OCC)C(F)(F)F` (stereo unspecified), which “growth rescue (activation)” value is on record?
Its value is inactive: 10.7%.

With `COc1cccc(-c2nnc3sc(-c4ccccn4)nn23)c1` as the compound, how does the “growth rescue (activation)” value read?
The value was inactive: -5.45%.

With `Cc1c(NC(=O)CSc2cccc3cccnc23)c(=O)n(-c2ccccc2)n1C` as the compound, how does the Potency read?
The Potency was inconclusive [activator, single point].

With `COc1ccc(Cl)cc1C(=O)O/N=C(\N)c1ccc(Cl)cc1` as the compound, how does the growth rescue (activation) read?
Its growth rescue (activation) is inconclusive: -93.7% [activator].

For `Cc1ccc(NC(=O)Cn2c(=O)n(CCCCC(=O)NCCc3ccccc3)c(=O)c3ccccc32)c(C)c1`, which “growth rescue (activation)” value is on record?
The value was inactive: 13.5%.

For `O=S(=O)(NCCc1csc(-c2cccnc2)n1)c1ccc2c(c1)OCCO2`, which “growth rescue (activation)” value is on record?
Its value is inactive: 21.7%.

For `CCCCOC(=O)c1ccc(NC(=O)c2cc3c(=O)n4cccc(C)c4nc3n2C)cc1`, which Potency is on record?
Its Potency is inconclusive [activator, partial curve].

Which Potency does the source give for `O=C(Nc1ccc(C(=O)N2CCN(c3ccccc3F)CC2)cc1)c1nsc2ccccc12` here?
The Potency was inconclusive [activator, partial curve].

For `CCOc1ccc(N2CC(=O)SC2=S)cc1`, which Potency is on record?
Its Potency is inconclusive [activator, single point].

With `O=C(NCCc1ccco1)c1cc(COc2cccc(C(F)(F)F)c2)on1` as the compound, how does the Potency read?
Its Potency is inconclusive [activator, single point].

Which Potency does the source give for `CCOc1ccc(-c2cc(C(=O)NC(C)c3ccccc3)c3ccccc3n2)cc1` (stereo unspecified) here?
Its Potency is inconclusive [activator, full curve, poor fit].

For `COc1ccc(COC(=O)C2=C(C)NC(=O)CC2c2cccc(Cl)c2Cl)cc1` (stereo unspecified), which “growth rescue (activation)” value is on record?
The value was inactive: 3.14%.

With `Cc1cccc(-n2nnc(C(=O)NCc3ccccc3)c2N)c1` as the compound, how does the “growth rescue (activation)” value read?
The value was inactive: 24.7%.

Which Potency does the source give for `Cn1c(SCc2c(F)cccc2Cl)nc2c(c1=O)SCC2` here?
Its Potency is inconclusive [activator, single point].

For `Cc1ccccc1NC(=S)NC(=O)c1cncc(Br)c1`, which Potency is on record?
Its Potency is inconclusive [activator, single point].

For `Cc1ccc(-c2nc(C)sc2CC(=O)OCC(=O)Nc2ccc(F)c(Cl)c2)cc1`, which Potency is on record?
The Potency was active: 25.1 µM.

For `COc1cc(NC(=O)N2CCc3nc(NCc4cccc(Oc5ccccc5)c4)ncc3C2)cc(OC)c1OC`, which Potency is on record?
The Potency was inconclusive [activator, full curve].

With `C#CCN1C(=O)S/C(=C/C=C/c2ccc(N(C)C)cc2)C1=O` as the compound, how does the “growth rescue (activation)” value read?
Its value is inactive: -2.99%.

Which Potency does the source give for `CC(C)(C)c1ccc(S(=O)(=O)NC(=O)C2(C)CCN2C(=O)C2CCCCC2)cc1` (stereo unspecified) here?
The Potency was inconclusive [activator, full curve].

Which Potency does the source give for `CCc1sc(C(=O)N2CCN(CC(=O)Nc3cccc(F)c3)CC2)cc1C` here?
Its Potency is inconclusive [activator, single point].

With `O=C(c1cccs1)N1CCN(c2ncc(Br)cn2)CC1` as the compound, how does the Potency read?
The Potency was inconclusive [activator, partial curve].

With `Cc1ccc(C2CN=NC23CCc2ccccc2C3=O)cc1` (stereo unspecified) as the compound, how does the Potency read?
The Potency was inconclusive [activator, single point].

For `CC(=O)C1=C(c2ccc(F)cc2)N(C(C)=O)n2c(nnc2C2CCCCC2)S1`, which “growth rescue (activation)” value is on record?
Its value is inactive: 12.3%.

With `CCc1ccc(NS(=O)(=O)c2ccc(-c3cc(C)no3)cc2)cc1` as the compound, how does the Potency read?
Its Potency is inconclusive [activator, single point].

With `Nc1ccc(Oc2ccccc2-c2ccccc2)cc1` as the compound, how does the Potency read?
The Potency was inconclusive [activator, single point].

Which Potency does the source give for `Cc1ccc2nc(NNC(=O)c3ccc(S(=O)(=O)N4CCc5ccccc5C4)cc3)sc2c1` here?
Its Potency is active: 8.91 µM.

With `CCOc1ccc(NS(=O)(=O)c2cc(C(=O)N3CCCC3)ccc2Cl)cc1` as the compound, how does the “growth rescue (activation)” value read?
The value was inactive: 3.7%.

With `COc1ccc([C@H]2N[C@]3(CCCN(Cc4ccc(Cl)cc4)C3=O)[C@H]3C(=O)N(Cc4ccccc4)C(=O)[C@@H]23)cc1` as the compound, how does the Potency read?
The Potency was inconclusive [activator, full curve, poor fit].

For `CCOC(=O)C1=C(COC(=O)c2ccc3ccccc3c2O)NC(=O)NC1C` (stereo unspecified), which Potency is on record?
The Potency was inconclusive [activator, single point].

With `COc1ccc(-c2onc(C)c2C)cc1S(=O)(=O)Nc1cccc(C#N)c1` as the compound, how does the “growth rescue (activation)” value read?
Its value is inactive: -4.63%.

Which “growth rescue (activation)” value does the source give for `CCOC(=O)N1CCc2c(sc3c2c(=O)n(-c2ccc(F)cc2)c(=O)n3CC(=O)c2ccc(Cl)cc2)C1` here?
The value was inactive: 5.43%.

Which “growth rescue (activation)” value does the source give for `O=C(CN1C(=O)C2(SCC(=O)N2c2cccc(F)c2)c2ccccc21)NCCc1ccccc1` (stereo unspecified) here?
Its value is inactive: 9.66%.

For `O=C(NCCc1csc(-c2cccnc2)n1)c1ccccc1`, which Potency is on record?
The Potency was inconclusive [activator, full curve, poor fit].

Which “growth rescue (activation)” value does the source give for `Cc1nn(CC(=O)O)c(C)c1N` here?
Its value is inactive: -6.41%.

With `CC1(C(=O)NS(=O)(=O)c2ccc3ccccc3c2)CCN1C(=O)Cc1ccc(Cl)cc1Cl` (stereo unspecified) as the compound, how does the “growth rescue (activation)” value read?
Its value is inactive: -0.566%.

With `O/N=C\c1ccc(-c2ccccc2)o1` as the compound, how does the Potency read?
Its Potency is active: 8.91 µM.

With `O=C(COC(=O)C1(c2ccccc2)CC1)N1CCN(c2ccc(F)cc2)CC1` as the compound, how does the Potency read?
Its Potency is inconclusive [activator, single point].

Which Potency does the source give for `CCOc1ccc(-c2nnc(-c3ccncc3)o2)cc1` here?
Its Potency is inconclusive [activator, single point].

For `O=C(O)c1cccc(S(=O)(=O)NCCc2ccccc2)c1`, which “growth rescue (activation)” value is on record?
The value was inactive: 6.71%.

Which Potency does the source give for `O=C(c1ccccc1)n1ccn(-c2ccccc2)c1=S` here?
Its Potency is active: 11.2 µM.

With `CC1=C(C(=O)N2CCCCCC2)CC(CC(=O)NCc2cccc3ccccc23)C(=O)N1CCC1=CCCCC1` (stereo unspecified) as the compound, how does the Potency read?
Its Potency is inconclusive [activator, partial curve].

For `Cc1ccc(S(=O)(=O)NCCc2ccccc2)cc1`, which Potency is on record?
The Potency was inconclusive [activator, single point].

For `CCSc1ccc2nnc(-c3ccc(F)cc3)n2n1`, which Potency is on record?
The Potency was inconclusive [activator, single point].

With `CCn1cc(C(=O)NC(=S)Nc2ccccc2[N+](=O)[O-])cn1` as the compound, how does the “growth rescue (activation)” value read?
The value was inactive: -13.8%.

For `CC(=O)c1ccc(OCc2cc(C(=O)N3CC[C@@H]4CCCC[C@H]4C3)no2)cc1`, which Potency is on record?
Its Potency is inconclusive [activator, single point].

With `COc1ccccc1[C@]1(C)ON(c2ccccc2C(F)(F)F)C1=O` as the compound, how does the Potency read?
Its Potency is inconclusive [activator, single point].

With `Cc1ccc(S(=O)(=O)Nc2ccc3nc(C)sc3c2)cc1` as the compound, how does the “growth rescue (activation)” value read?
The value was inactive: 28.6%.

For `COC(=O)[C@@]12CCCN1[C@H](c1ccc(-c3ccc(Cl)c(Cl)c3)cc1)[C@H]1C(=O)N(C)C(=O)[C@H]12`, which Potency is on record?
Its Potency is inconclusive [activator, partial curve].

With `O=C1CCCN1CCCN=c1c([N+](=O)[O-])nn(-c2ccc(Cl)cc2)n1O` as the compound, how does the Potency read?
The Potency was active: 14.1 µM.

With `Cc1cccc([C@@H]2[C@@H]3C(=O)N(Cc4ccccc4)C(=O)[C@@H]3[C@]3(Cc4ccc(Cl)cc4)C(=O)N(c4cccc(Br)c4)C(=O)N23)c1` as the compound, how does the “growth rescue (activation)” value read?
The value was inactive: -8.88%.

For `CC(=O)Nc1cc(-c2cccc(F)c2)cn2c(-c3ccc(F)c(Cl)c3)cnc12`, which Potency is on record?
Its Potency is inconclusive [activator, partial curve].

— PubChem BioAssay AID652104 (National Center for Advancing Translational Sciences (NCATS), 2013)
